# According to article PMC7819943, “Rice protein-binding microarrays: a tool to detect cis-acting elements near promoter regions in rice”:
# Some of the results follow.
# Target: T1, OsWOX13 (Oryza sativa, UniProt Q5QMM3 1-267)
# T1 sequence: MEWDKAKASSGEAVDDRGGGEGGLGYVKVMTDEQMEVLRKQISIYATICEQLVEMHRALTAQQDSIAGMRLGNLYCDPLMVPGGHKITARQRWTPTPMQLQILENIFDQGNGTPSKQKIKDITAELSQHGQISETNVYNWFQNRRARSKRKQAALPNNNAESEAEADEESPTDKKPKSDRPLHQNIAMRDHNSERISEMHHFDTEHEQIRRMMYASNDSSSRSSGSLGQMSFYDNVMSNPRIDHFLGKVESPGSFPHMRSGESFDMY
# Experiment: protein-binding microarray (RPBM); PBS, 2% BSA, 51.3 ng/ul salmon testes DNA, 50 uM zinc acetate, 200 nM TF, 25 C, 1 h; high values mean tight binding
# Details: protein: recombinant; tags: N-terminal polyhistidine and DsRed monomer fusion (pET32a); label: CyDye5-dUTP incorporated in the synthesized complementary strand; 3' TTTTT single-stranded linker to array surface; dsDNA, one strand shown
# Method in brief: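 The binding signal is fluorescence intensity per feature, in arbitrary units, read on an Axon 4000B scanner. Polyhistidine- and DsRed-tagged transcription factors (N-terminal fusions) from E. coli BL21-CodonPlus were purified on Ni–NTA and applied at 200 nM for 1 h at 25 °C to a double-stranded, BSA-blocked custom Agilent array in buffer with 50 µM zinc acetate.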
row,Sequence,binding signal
1,ATTCCGCCCGTCAATCCTGTGCCTCTTCCCTCAATATATACGGAGTCACCTAGTGCAG,6620 fluorescence intensity (a.u.)
2,ACAAATTCTGAAGCCTGATTAGCGTATCCGCTGATACATTCGGAGTCACCTAGTGCAG,11300 fluorescence intensity (a.u.)
3,AAAGTCTCAATCATAAGACCATAGTAAGGACTGCGGCCCACGGAGTCACCTAGTGCAG,4560 fluorescence intensity (a.u.)
4,AAACAATTAAGTCTTTATATATATATAAGTAGTGGCACTTCGGAGTCACCTAGTGCAG,5190 fluorescence intensity (a.u.)
5,AAGCCTTAATTAGCAAAGCATCATCCATACGTAGTTACCGCGGAGTCACCTAGTGCAG,27900 fluorescence intensity (a.u.)
6,TAGATTTAATGGAACTAATTTAGTATTTTAGATGTTCTTACGGAGTCACCTAGTGCAG,9840 fluorescence intensity (a.u.)
7,GGATTTTACAAAATTTGTAATTTAATTCTGTACACTTGACCGGAGTCACCTAGTGCAG,8790 fluorescence intensity (a.u.)
8,TCTAATAAGATAACTCTGATTAGTGCGGCTGGTAGCAGAGCGGAGTCACCTAGTGCAG,16100 fluorescence intensity (a.u.)
9,TGTGACATTTCCAATCACTAATTGATCAATTGCACAACAACGGAGTCACCTAGTGCAG,38100 fluorescence intensity (a.u.)
10,TATATATATATATATATATATATATATATATACACACACACGGAGTCACCTAGTGCAG,17200 fluorescence intensity (a.u.)
11,TTCTCAATTATTTTCTAATCCTTATTGCTTAGCTTACTAACGGAGTCACCTAGTGCAG,8360 fluorescence intensity (a.u.)
12,ACTGATGAGTTTAGCTGCCGCTTGGATATGCATCGTGTTGCGGAGTCACCTAGTGCAG,5780 fluorescence intensity (a.u.)
13,ATAATTATTTAAATTATATGCATACACCTAGGTGCCATGGCGGAGTCACCTAGTGCAG,38800 fluorescence intensity (a.u.)
14,TCCTCACATGATGTACAGTCACACACACTCCTCCTCTCTCCGGAGTCACCTAGTGCAG,4050 fluorescence intensity (a.u.)
15,AAAATGAGTCCATTAATTAATTAATTAATTAAGGACCGCTCGGAGTCACCTAGTGCAG,41100 fluorescence intensity (a.u.)
16,AATCATGAACTAATTAGGCTCAAAAGATTTGTCTCACGATCGGAGTCACCTAGTGCAG,6090 fluorescence intensity (a.u.)
17,AAATGTAGATTAATTGCTCTGGTCTTTGGTCTTGTTGCAACGGAGTCACCTAGTGCAG,20300 fluorescence intensity (a.u.)
18,CTGATTGTGTTGTGTAACAAAACTATCTTTATTCTAATGTCGGAGTCACCTAGTGCAG,11900 fluorescence intensity (a.u.)
19,TAATTAATCATGCGCTAATGGAGCACTCCGTTTTCCGTGCCGGAGTCACCTAGTGCAG,17400 fluorescence intensity (a.u.)
20,GCGCACTAATTATCTCTTTCCCCTCTGATGGTTGAGGAACCGGAGTCACCTAGTGCAG,22000 fluorescence intensity (a.u.)
21,GTGACATGATTACAATTAGAAGCAAGAAAAGGCGCTAATGCGGAGTCACCTAGTGCAG,35200 fluorescence intensity (a.u.)

row,Sequence,binding signal
1,TGGTAATTGCTGATTATTCCTACAAATGCCGTGATGATTTCGGAGTCACCTAGTGCAG,26700 fluorescence intensity (a.u.)
2,AAAATGTGATGACTGATCAACCGGGGTCACCGTCTTCACTCGGAGTCACCTAGTGCAG,10100 fluorescence intensity (a.u.)
3,ATCGTAAGCCATGACTAATTAGCTCAAATTAAAATTCAAACGGAGTCACCTAGTGCAG,4210 fluorescence intensity (a.u.)
4,GCTAATCATAGACTAATTAGGCTTAAAAGATTTGTCTCGCCGGAGTCACCTAGTGCAG,37200 fluorescence intensity (a.u.)
5,TCCACCTAATTAATCCACGGTCATGACTAGGTCATCATCACGGAGTCACCTAGTGCAG,12900 fluorescence intensity (a.u.)
6,TTAGATTGGTCGCTTGCGGACGGGGAAGGAGCAGAACACTCGGAGTCACCTAGTGCAG,14300 fluorescence intensity (a.u.)
7,ATGCAGATTAGCGTGCGATTAGCGAGGCCACGTGGCGCTGCGGAGTCACCTAGTGCAG,6260 fluorescence intensity (a.u.)
8,CATAAAACCGATCAATTAGGTATCAGGTCACAATTAACCACGGAGTCACCTAGTGCAG,3160 fluorescence intensity (a.u.)
9,AATAATCACTAATTTCCCTATCACACGGGTCTCGCTATCGCGGAGTCACCTAGTGCAG,18900 fluorescence intensity (a.u.)
10,CACAATTTGGTCAATCTGTTGTTCGAGCAGATTACCTTATCGGAGTCACCTAGTGCAG,6470 fluorescence intensity (a.u.)
11,CTATTATGTCAATTATTTCTAGTGCCTAGTGCCTAGTTGTCGGAGTCACCTAGTGCAG,17700 fluorescence intensity (a.u.)
12,AATTGCTTCTTCAGGTGAATCAAGTCGACTTGATTGGCACCGGAGTCACCTAGTGCAG,8400 fluorescence intensity (a.u.)
13,GTGATAATTGAGTATGCTACGCGTCTGACGTACTACGAGTCGGAGTCACCTAGTGCAG,19900 fluorescence intensity (a.u.)
14,CCTCCAATCTCGTCACCAACCAAACCACCTCGCCGCAGATCGGAGTCACCTAGTGCAG,3810 fluorescence intensity (a.u.)
15,GATGATTTTCTCGTATCGATCTCTCCAACCCACCCGCCCGCGGAGTCACCTAGTGCAG,14000 fluorescence intensity (a.u.)
16,ACGTTTAATTACGGGAAACCGGCTAAAACCCACCACACATCGGAGTCACCTAGTGCAG,6640 fluorescence intensity (a.u.)
17,TACATGATTAGCCTATGTGATGCTACAGTAAACATTCTCTCGGAGTCACCTAGTGCAG,29700 fluorescence intensity (a.u.)
18,GGTTAGATTAGAGTTAGGCTCGCCATTAAACAACACTCATCGGAGTCACCTAGTGCAG,6220 fluorescence intensity (a.u.)
19,TAAAGTAATTGAATGATACCTTTAAAGTTTCCTCTTGAGGCGGAGTCACCTAGTGCAG,45400 fluorescence intensity (a.u.)
20,CTTAACTGGTGCGCATACTTCACAATACAAGTAGGCCCAACGGAGTCACCTAGTGCAG,9870 fluorescence intensity (a.u.)
21,ATCCATGAGACTGCCAAATTGTTAACATCCTATTTGCGCACGGAGTCACCTAGTGCAG,3180 fluorescence intensity (a.u.)
